Data taken from PubChem BioAssay (NCATS).
“And” between values parts separate entries of the source, which are not always exact repeats. Equal values may be shown once. Inconclusive results, whose numbers are uncertain, are shown with a selection of clear calls. For some assays here: Potencies of inconclusive entries are doubtful fits and often do not repeat. For some assays here: “Side channel” marks fits to a control or component signal instead of the main read-out. The source made the active and inactive calls. Unless noted, calls come from the whole dose curve; as a rule, active = well fitted curve in the direction sought with a large enough effect; inconclusive = small, poorly fitted or top-dose-only effect, or another doubt; inactive = no such curve, though single readings can be large; an effect the other way counts as inactive or inconclusive.

Assays:
[1] = Cell Viability - BJ (AID 421; calls by dose curve;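 note: potency is the fitted concentration of half-maximal effect; cells exposed to compound for 40 hours at 37 °C before readout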); details: BJ fibroblast viability, qHTS
Outline: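 Quantitative HTS: ATP depletion in BJ cells after 40 hr compound exposure in complete culture medium, detected with CellTiter-Glo; AC50 from standard Hill fits.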

[2] = Cell Viability - N2a (AID 540); details: N2a mouse neuroblastoma cell viability; activity change, negative = cytotoxicity: at 92.2 µM (top of the series);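 note: plate controls were DMSO alone for no effect and tamoxifen control for full effect; nearly all actives have a fitted effect of over 45% in size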
Outline: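 Luminescent ATP signal (CellTiter-Glo, 20 min at room temperature) served as the viability read-out after N2a cells were treated with compounds for 40 hours at 37 °C. Concentration-response data were fitted to the Hill equation for AC50.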

[3] = Cell Viability - LYMP2-001 (AID 921); details: LYMP2-001 lymphoblastoid cell viability; activity change, negative = cytotoxic: at 92.2 µM (top of the series);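 note: potency is the fitted concentration of half-maximal effect; cells exposed to compound for 24 h at 37 °C; nearly all actives have a fitted effect of over 70% in size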
Outline: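 CellTiter-Glo luminescence (intracellular ATP) after 24 hr compound exposure at 37 C, 2500 lymphoblastoid cells/well in complete medium. AC50 fitted with standard Hill equation; tetraoctylammonium bromide positive control.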

[4] = Cell Viability - LYMP2-004 (AID 966); details: LYMP2-004 lymphoblastoid cell viability, qHTS; activity change, negative = cytotoxicity: at 92.2 µM (top of the series);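 note: potency is the fitted concentration of half-maximal effect; cells exposed to compound for 24 h; nearly all actives have a fitted effect of over 65% in size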
Outline: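 Cells seeded 2500/well, rested 5 hr at 37 C, dosed across a concentration series, incubated 24 hr at 37 C, then CellTiter-Glo added for 30 min at room temperature and luminescence read. Hill fitting gave AC50.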

[5] = Cell Viability - LYMP2-009 (AID 968); details: LYMP2-009 lymphoblastoid cell viability; series mostly up to 92.2 µM;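 note: potency is the fitted concentration of half-maximal effect; cells exposed to compound for 24 h at 37 °C; nearly all actives have a fitted effect of over 55% in size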
[6] = Cell Viability - LYMP2-002 (AID 977); details: LYMP2-002 lymphoblastoid cell viability, qHTS; activity change, negative = cytotoxic: at 92.2 µM (top of the series);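 note: potency is the fitted concentration of half-maximal effect; compound exposure lasted 24 h at 37 °C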
Outline: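 Cytotoxicity is scored as concentration-dependent loss of cellular ATP in a human lymphoblastoid line after 24 hr compound treatment at 37 C. AC50 is obtained by modelling concentration-response data with the Hill equation.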

[7] = Cell Viability - LYMP2-010 (AID 981); details: LYMP2-010 lymphoblastoid cell viability, qHTS; series mostly up to 92.2 µM; note: potency is the fitted concentration of half-maximal effect; nearly all actives have a fitted effect of over 55% in size
Outline: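 Luminescent ATP signal (CellTiter-Glo) served as the viability read-out. Cells of the human lymphoblastoid line were treated with compound over a concentration range for 24 hours at 37 C, and AC50 values came from Hill-equation modeling.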

[8] = qHTS assay for small molecule activators of the p53 signaling pathway (AID 651743; active = well fitted activation curve with a large enough effect in the signal ratio, not every such curve was filed as active; inconclusive = small, poorly fitted or top-dose-only effect, or a change in a side signal; the % refers to the signal ratio; note: potency is the fitted concentration of half-maximal effect); details: HCT-116 p53RE-bla, beta-lactamase FRET ratio, 16 h; activation: hits give high values
Outline: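 Read-out is fluorescence intensity from the LiveBLAzer B/G FRET substrate, added for 2 hours at room temperature after HCT-116 p53RE-bla cells had been incubated with compounds for 16 hours at 37 C.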

[9] = qHTS assay for cell viability of HEK293 cells (AID 743288); details: ATP luminescence (CellTiter-Glo), 18 h; max response: hits give low values; note: potency is the fitted concentration of half-maximal effect; nearly all actives have a fitted effect of over 50% in size
Outline: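 Environmental chemicals tested in qHTS format against parental HEK293 cells; 18 h treatment, 37 C; read-out ATP luminescence (CellTiter-Glo), 30 min RT development.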

[10] = Cell Viability - LYMP2-017 (AID 972); details: LYMP2-017 lymphoblastoid cell viability; series mostly up to 92.2 µM; note: nearly all actives have a fitted effect of over 55% in size; note: potency is the fitted concentration of half-maximal effect; for activity change, negative = cytotoxicity: % is set by controls: 0 for no effect and ±100 for the full control effect
Outline: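 2500 cells/well, 5 h 37 C; cpd 24 h 37 C in complete medium; CellTiter-Glo, 30 min RT; luminescence (ATP). AC50 via Hill fit, qHTS.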

[11] = target: Vitamin D3 receptor (Homo sapiens) (UniProt P11473); assay: qHTS assay for small molecule agonists of vitamin D receptor signaling (AID 588543; calls by dose curve; note: potency is the fitted concentration of half-maximal effect;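 for activation: 0% = DMSO basal and 100% = reference agonist control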); details: HEK293T VDR-UAS-bla, beta-lactamase ratio, 16 h; activation: at 76.8 µM (top of the series)
Outline: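 β-lactamase reporter, VDR-UAS-bla HEK293T, agonist mode. Cells plated 5 h at 37 °C, compound titration 16 h at 37 °C, CCF4 dye 2 h RT, ratio 460/530 nm. Hill fit → EC50, efficacy vs 50 nM 1α,25-(OH)2D3.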

[12] = Cellular Toxicity (caspase-3) Jurkat (AID 655); details: Jurkat caspase-3 activation, luminescence; caspase-3 activation: at 92.2 µM (top of the series), DMSO = 0%, tamoxifen = 100%;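 note: cells exposed to compound for 16 h at 37 °C before reading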
Outline: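 Luminescent caspase-3/7 readout (aminoluciferin substrate cleavage) in human T-cell leukemia Jurkat cells after 16 hr compound exposure. Concentration-response normalized to DMSO and 100 uM tamoxifen; AC50 by standard Hill equation.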

[13] = Cell Viability - LYMP2-022 (AID 987); details: LYMP2-022 lymphoblastoid cell viability; viability change, negative = cytotoxic: at 92.2 µM (top of the series); note: potency is the fitted concentration of half-maximal effect; nearly all actives have a fitted effect of over 55% in size
Outline: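 qHTS: human lymphoblastoid cells 2500/well; 5 hr 37 C; cpd added; 24 hr 37 C; CellTiter-Glo, 30 min RT; luminescence. AC50 via Hill fit; tetraoctylammonium bromide positive ctrl.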

[14] = Cell Viability - SK-N-SH (AID 435; calls by dose curve; note: potency is the fitted concentration of half-maximal effect); details: SK-N-SH neuroblastoma cell viability qHTS
Outline: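 CellTiter-Glo ATP luminescence, 20 min RT read; cells pre-plated 5 hr, compound 40 hr at 37 °C, 1500 cells/well, complete medium. Normalized DMSO = 0, 100 uM tamoxifen = 100% inhibition; Hill-fit AC50.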

[15] = Cell Viability - NIH 3T3 (AID 541); details: NIH 3T3 cell viability, qHTS; activity change, negative = cytotoxicity: at 92.2 µM (top of the series);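 note: plate controls were DMSO alone for no effect and tamoxifen positive control for full effect; nearly all actives have a fitted effect of over 25% in size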
Outline: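 Luminescent ATP signal (CellTiter-Glo) served as the viability read-out after NIH 3T3 cells were exposed to compounds over a concentration range for 40 hr at 37 °C. Hill-equation modelling of concentration-response data gave AC50.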

[16] = target: Nuclear receptor ROR-gamma (Homo sapiens) (UniProt P51449); assay: qHTS assay for small molecule antagonists of the retinoid-related orphan receptor gamma (ROR-gamma) signaling pathway (AID 651802); details: ROR-gamma antagonist cell reporter assay; series mostly up to 92.2 µM; note: potency is the fitted concentration of half-maximal effect; nearly all actives have a fitted effect of over 60% in size
UniProt P51449, sequence (P51449 whole entry, looked up): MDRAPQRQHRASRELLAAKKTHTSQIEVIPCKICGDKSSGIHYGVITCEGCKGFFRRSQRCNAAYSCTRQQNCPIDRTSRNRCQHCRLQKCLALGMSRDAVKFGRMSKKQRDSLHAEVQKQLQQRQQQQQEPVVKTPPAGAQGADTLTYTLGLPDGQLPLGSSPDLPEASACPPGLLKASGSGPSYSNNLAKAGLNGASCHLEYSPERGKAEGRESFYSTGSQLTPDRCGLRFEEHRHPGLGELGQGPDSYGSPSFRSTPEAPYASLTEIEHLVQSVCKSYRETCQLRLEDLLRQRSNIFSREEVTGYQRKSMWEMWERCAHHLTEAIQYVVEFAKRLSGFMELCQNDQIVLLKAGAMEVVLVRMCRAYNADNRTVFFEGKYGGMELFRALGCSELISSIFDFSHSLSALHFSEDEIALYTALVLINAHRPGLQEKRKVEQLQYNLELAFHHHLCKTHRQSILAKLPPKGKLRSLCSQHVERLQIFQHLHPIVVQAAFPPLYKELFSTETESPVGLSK
Outline: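 CHO, TET-inducible ROR + RORE-LUC reporter, 1536-well qHTS. Compound pinned, doxycycline added, 16hr 37C/5% CO2. ONE-Glo, 30 min RT, luminescence; signal drop scored as antagonism.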

[17] = target: Peroxisome proliferator-activated receptor delta (Homo sapiens) (UniProt Q03181); assay: qHTS assay for small molecule agonists of peroxisome proliferator-activated receptor delta signaling (AID 588534; calls by dose curve; note: potency is the fitted concentration of half-maximal effect;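 for activation: 0% = DMSO basal wells and 100% = positive control agonist at 10 µM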); details: HEK293T PPARdelta-UAS-bla, beta-lactamase ratio, 18 h; activation: at 76.7 µM (top of the series)
UniProt Q03181, sequence (Q03181 whole entry, looked up): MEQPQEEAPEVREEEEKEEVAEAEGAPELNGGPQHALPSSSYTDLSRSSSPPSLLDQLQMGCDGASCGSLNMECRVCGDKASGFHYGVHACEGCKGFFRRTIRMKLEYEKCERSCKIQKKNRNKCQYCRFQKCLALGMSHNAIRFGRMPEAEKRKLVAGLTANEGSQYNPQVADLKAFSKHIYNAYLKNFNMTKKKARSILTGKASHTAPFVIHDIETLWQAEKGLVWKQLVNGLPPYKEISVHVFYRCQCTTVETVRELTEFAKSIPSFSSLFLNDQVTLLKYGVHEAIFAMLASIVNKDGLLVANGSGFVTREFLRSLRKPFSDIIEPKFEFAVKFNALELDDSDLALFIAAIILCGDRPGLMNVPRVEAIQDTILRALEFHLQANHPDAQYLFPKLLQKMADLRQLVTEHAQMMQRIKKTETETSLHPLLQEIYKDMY
Outline: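 Fluorescence from CCF4 substrate cleavage by beta-lactamase reporter, read 2 hrs at RT, measured agonist activity. Compounds were tested with 18 hrs exposure at 37 C. Concentration-response data fitted to Hill equation.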

[18] = Cell Viability - HepG2 (AID 433; calls by dose curve;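 note: potency is the fitted concentration of half-maximal effect; potency for ATP loss meaning cytotoxicity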); details: qHTS
Outline: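 ATP luminescence (CellTiter-Glo) after 40 h compound exposure, 37 °C, HepG2, 1500 cells/well, complete medium. Normalized: DMSO = basal, 100 uM tamoxifen = 100% inhibition. AC50 via standard Hill equation.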

[19] = Cell Viability - Renal Proximal Tubule (AID 545); details: renal proximal tubule cells viability; activity change, negative = cytotoxicity: at 91.7 µM (top of the series) unless noted; note: nearly all actives have a fitted effect of over 40% in size; note: potency is the fitted concentration of half-maximal effect
Outline: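 Rat kidney proximal tubule cells, freshly isolated; 1000 cells/well, 5 hr settle, compound 40 hr 37 °C. CellTiter-Glo 20 min RT, luminescence read. AC50 by standard Hill fit.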

[20] = Cell Viability - LYMP2-026 (AID 989); details: LYMP2-026 lymphoblastoid cell viability, qHTS; activity change, negative = cytotoxic: at 92.2 µM (top of the series);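 note: potency is the fitted concentration of half-maximal effect; cells exposed to compound for 24 h at 37 °C; nearly all actives have a fitted effect of over 50% in size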
Outline: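 Luminescent ATP signal (CellTiter-Glo, 30 min room temperature) measures viable lymphoblastoid cells after 24 hr compound treatment at 37 C. Decreased ATP reflects acute toxicity; AC50 values come from Hill-equation modeling.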
Tags give direction and shape of the fitted curve or compound fluorescence and quenching.

N#C/C=C/C#N
active: Potency [3] 31.6 µM | Potency [4] 15.8 µM | Potency [5] 31.6 µM | Potency [7] 31.6 µM
inconclusive: Potency [1] 102 µM [single point] | activity change, negative = cytotoxicity [2] -78.9% | Potency [6] 39.8 µM [cytotoxic, partial curve, poor fit] | Potency [8] 70.8 µM [activator, single point] | Potency [9] 35.5 µM [cytotoxic, single point]

Cc1ccc([N+](=O)[O-])cc1C
inactive: Potency [1] > 92 µM | Potency [10] | Potency [11]

O=[N+]([O-])c1cccc(CCl)c1
inconclusive: Potency [1] 71.8 µM [single point] | caspase-3 activation [12] 40.7% | Potency [3] 79.4 µM [cytotoxic, partial curve, poor fit] | Potency [10] 50.1 µM [cytotoxic, partial curve, poor fit] | Potency [7] 50.1 µM [cytotoxic, partial curve, poor fit] | Potency [13] 50.1 µM [cytotoxic, partial curve, poor fit]
active: Potency [5] 79.4 µM

ClC1=C(Cl)C2(Cl)C3C(Cl)C=CC3C1(Cl)C2(Cl)Cl (stereo not given)
inconclusive: Potency [1] 107 µM [single point] | Potency [14] 67.3 µM [single point] | activity change, negative = cytotoxicity [2] -41.5% | activity change, negative = cytotoxicity [15] -32.2% | Potency [3] 79.4 µM [cytotoxic, partial curve, poor fit] | Potency [4] 39.8 µM [cytotoxic, partial curve, poor fit] | Potency [10] 50.1 µM [cytotoxic, partial curve, poor fit] | Potency [6] 79.4 µM [cytotoxic, single point] | Potency [7] 50.1 µM [cytotoxic, single point] | Potency [13] 63.1 µM [cytotoxic, partial curve, poor fit] | Potency [16] 0.75 µM [inhibitor, partial curve, poor fit]

C=CC(=O)OCCO
inconclusive: Potency [14] 95.1 µM [single point] | Potency [3] 39.8 µM [cytotoxic, partial curve, poor fit] | Potency [4] 50.1 µM [cytotoxic, partial curve, poor fit] | Potency [5] 50.1 µM [cytotoxic, partial curve, poor fit] | Potency [10] 50.1 µM [cytotoxic, single point] | Potency [13] 50.1 µM [cytotoxic, partial curve] | activation [17] 21.5% | Potency [16] 75 µM [inhibitor, single point]
inactive: Potency [11]

[Cd+2].[Cl-].[Cl-]
active: activity change, negative = cytotoxicity [15] -132% | Potency [19] 12.6 µM | Potency [16] 3.35 µM
inconclusive: Potency [18] 88.9 µM [single point] | Potency [14] 104 µM [single point] | Potency [17] 31.6 µM [side channel, rising, partial curve] | Potency [9] 7.94 µM [cytotoxic, full curve]

Clc1cc(Cl)c(Cl)c(Cl)c1
inactive: Potency [1] > 92 µM
inconclusive: Potency [16] 0.0944 µM [inhibitor, full curve, poor fit]

O=C1C(Cl)=C(Cl)C(=O)C(Cl)=C1Cl
active: Potency [1] 50.5 µM | Potency [3] 12.6 µM | Potency [5] 20 µM | Potency [6] 25.1 µM | Potency [20] 25.1 µM
inconclusive: Potency [18] 102 µM [partial curve] | Potency [4] 15.8 µM [cytotoxic, full curve, poor fit] | activation [17] -1.74% | Potency [11] 44.7 µM [rising, partial curve] | Potency [16] 7.5 µM [inhibitor, full curve, poor fit]

C=C(C)CCl
inactive: Potency [17]
inconclusive: activity change, negative = cytotoxicity [15] -31.5%

Clc1ccc(C(c2ccc(Cl)cc2)C(Cl)Cl)cc1
inconclusive: Potency [17] 28.2 µM [side channel, rising, single point] | Potency [8] 50.1 µM [side channel, falling, single point] | Potency [9] 44.7 µM [cytotoxic, partial curve] and 50.1 µM [cytotoxic, single point]
active: Potency [1] 55 µM | activity change, negative = cytotoxicity [19] -88.1%
